Whole data set: some 81,000 sequences, median “one-hybrid fitness for binding parS DNA” near -0.17, cut for the highest 2% near 0.51. This is one part of the list.
B1: Caulobacter ParB omega fusion; a variant is named by its letters at X, in order, B8GW30 (parent)
chain: MESVVVGEPGMSEGRRGLGRGLSALLGEVDAAPAQAPGEQLGGSREAPIEILQRNPDQPRRTFREEDLEDLSNSIREKGVLQPILVRPSPDTAGEYQIVAGERAWRAAQRAGLKTVPIMVRELDDLAVLEIGIIENVQRADLNVLEEALSYKVLMEKFERTQENIAQTIGKSXSHVANXMRLLXLPDEVQSYLVSGELTAXHARAIAAAADPVALAKQIIEGGLSVRETEALARKAPNLSAGKSKGGRPPRVKDTDTQALESDLSSVLGLDVSIDHRGSTGTLTITYATLEQLDDLCNRLTRGI

Variants of: B1
Assay: one-hybrid fitness for binding parS DNA (scaled: cognate 1, non-cognate 0); higher = stronger binding
Conditions: with parS DNA site
In short: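 Selection: bacterial one-hybrid in E. coli USO, HIS3 reporter with the site 19 bp from the promoter, 48 hours at 37°C on M9-minus-histidine plus 0.1 mM IPTG and 5 mM 3-AT. Libraries were Caulobacter ParB with four randomised specificity codons, sequenced on Illumina before and after selection. Fitness is the rescaled log change in variant-to-wild-type read ratio, anchored to the cognate and non-cognate sites.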

Variant	one-hybrid fitness for binding parS DNA
NYHR	≤ 0.2
QHQA	≤ 0.2
HNQT	≤ 0.2
QEFR	≤ 0.2
AWLG	≤ 0.2
SRLE	≤ 0.2
PCKS	≤ 0.2
MQWT	≤ 0.2
RMIL	≤ 0.2
NPPP	≤ 0.2
MLYG	≤ 0.2
WRYR	≤ 0.2
GNTR	≤ 0.2
NNNK	≤ 0.2
VDEN	≤ 0.2
ATLL	≤ 0.2
THYP	≤ 0.2
RPAR	≤ 0.2
RFLY	0.432
GRAH	≤ 0.2
PRSG	≤ 0.2

Variant	one-hybrid fitness for binding parS DNA
SPKI	≤ 0.2
HTRF	≤ 0.2
WWSD	≤ 0.2
GAPC	≤ 0.2
DGFC	≤ 0.2
QHYR	≤ 0.2
QNLN	≤ 0.2
AHQG	≤ 0.2
CIKG	≤ 0.2
RTYC	0.982
MPYS	≤ 0.2
HSIV	≤ 0.2
NHHL	≤ 0.2
ALYL	≤ 0.2
PMPP	≤ 0.2
VGWY	≤ 0.2
QHSI	≤ 0.2
HHGS	≤ 0.2
PDNI	≤ 0.2
YHNS	≤ 0.2
TQTA	≤ 0.2

Variant	one-hybrid fitness for binding parS DNA
VNNY	≤ 0.2
LVMN	≤ 0.2
FDLD	≤ 0.2
WGDM	≤ 0.2
LCSR	≤ 0.2
GRRD	≤ 0.2
ALLP	≤ 0.2
LDKN	≤ 0.2
EPPG	≤ 0.2
NSNW	≤ 0.2
IMTT	≤ 0.2
MTPD	≤ 0.2
KIHS	≤ 0.2
RKYS	0.857
FTPG	≤ 0.2
KSST	≤ 0.2
LDHE	≤ 0.2
YRRI	≤ 0.2
SAMY	≤ 0.2
SWRK	≤ 0.2
QPAH	≤ 0.2

Variant	one-hybrid fitness for binding parS DNA
YVIT	≤ 0.2
DSAA	≤ 0.2
KHVN	≤ 0.2
FYAE	≤ 0.2
FVCV	≤ 0.2
KPWC	≤ 0.2
PRQF	≤ 0.2
QVSL	≤ 0.2
GRYA	≤ 0.2
FRDT	≤ 0.2
FASG	≤ 0.2
RSPA	≤ 0.2
FRYR	≤ 0.2
SGSN	≤ 0.2
VQCR	≤ 0.2
MTIR	≤ 0.2
WRRH	≤ 0.2
VHTC	≤ 0.2
PKST	≤ 0.2
SCLS	≤ 0.2
SLVE	≤ 0.2

Source: a collection of fitness landscapes (doi:10.1016/j.celrep.2020.107928)
